Our source for the binding signal values is PMC9911399, “Two distinct binding modes provide the RNA-binding protein RbFox with extraordinary sequence specificity”.

Changes are numbered by the printed parent chain; changes in the protein carry UniProt numbers. The list shows a part of the results.

To fix the notation:
B1: GAGCGUU (DNA:RNA)
RNA: GGGAGACCGGAAUUCAGAUUGUCCGAGCGUUUUAAAUCCCGUCGUAGCCACCA
DNA 1: CAATCTGAATTCCGGTCTCCC
DNA 2: TGGTGGCTACGACGGGATT
B2: CUUCUGC (DNA:RNA)
RNA: B1 RNA with G25C, A26U, G27U, G29U, U30G, U31C
DNA 1: CAATCTGAATTCCGGTCTCCC
DNA 2: TGGTGGCTACGACGGGATT
B3: AUAUUAA (DNA:RNA)
RNA: GGGAGACCGGAAUUCAGAUUGUCCAUAUUAAUUAAAUCCCGUCGUAGCCACCA
DNA 1: CAATCTGAATTCCGGTCTCCC
DNA 2: TGGTGGCTACGACGGGATT
B4: UUAUACC (DNA:RNA)
RNA: B3 RNA with A25U, U29A, A30C, A31C
DNA 1: CAATCTGAATTCCGGTCTCCC
DNA 2: TGGTGGCTACGACGGGATT
B5: UACCCGG (DNA:RNA)
RNA: B1 RNA with G25U, G27C, G29C, U30G, U31G
DNA 1: CAATCTGAATTCCGGTCTCCC
DNA 2: TGGTGGCTACGACGGGATT
B6: UUGGCAC (DNA:RNA)
RNA: B3 RNA with A25U, A27G, U28G, U29C, A31C
DNA 1: CAATCTGAATTCCGGTCTCCC
DNA 2: TGGTGGCTACGACGGGATT
B7: GAACAUU (DNA:RNA)
RNA: B1 RNA with G27A, G29A
DNA 1: CAATCTGAATTCCGGTCTCCC
DNA 2: TGGTGGCTACGACGGGATT
B8: CCGAGGU (DNA:RNA)
RNA: B1 RNA with G25C, A26C, C28A, U30G
DNA 1: CAATCTGAATTCCGGTCTCCC
DNA 2: TGGTGGCTACGACGGGATT
B9: AAAUCAA (DNA:RNA)
RNA: B3 RNA with U26A, U29C
DNA 1: CAATCTGAATTCCGGTCTCCC
DNA 2: TGGTGGCTACGACGGGATT
B10: GGGGUCG (DNA:RNA)
RNA: B1 RNA with A26G, C28G, G29U, U30C, U31G
DNA 1: CAATCTGAATTCCGGTCTCCC
DNA 2: TGGTGGCTACGACGGGATT
B11: AACAGGG (DNA:RNA)
RNA: B1 RNA with G25A, G27C, C28A, U30G, U31G
DNA 1: CAATCTGAATTCCGGTCTCCC
DNA 2: TGGTGGCTACGACGGGATT
B12: GUCACAU (DNA:RNA)
RNA: B3 RNA with A25G, A27C, U28A, U29C, A31U
DNA 1: CAATCTGAATTCCGGTCTCCC
DNA 2: TGGTGGCTACGACGGGATT
B13: CUGAUUU (DNA:RNA)
RNA: B1 RNA with G25C, A26U, C28A, G29U
DNA 1: CAATCTGAATTCCGGTCTCCC
DNA 2: TGGTGGCTACGACGGGATT
B14: CAAUGAC (DNA:RNA)
RNA: B3 RNA with A25C, U26A, U29G, A31C
DNA 1: CAATCTGAATTCCGGTCTCCC
DNA 2: TGGTGGCTACGACGGGATT
B15: GUAAGCA (DNA:RNA)
RNA: B3 RNA with A25G, U28A, U29G, A30C
DNA 1: CAATCTGAATTCCGGTCTCCC
DNA 2: TGGTGGCTACGACGGGATT
B16: CAAGUUA (DNA:RNA)
RNA: B3 RNA with A25C, U26A, U28G, A30U
DNA 1: CAATCTGAATTCCGGTCTCCC
DNA 2: TGGTGGCTACGACGGGATT
B17: UCGUUUA (DNA:RNA)
RNA: B3 RNA with A25U, U26C, A27G, A30U
DNA 1: CAATCTGAATTCCGGTCTCCC
DNA 2: TGGTGGCTACGACGGGATT
B18: UUAUUCU (DNA:RNA)
RNA: B3 RNA with A25U, A30C, A31U
DNA 1: CAATCTGAATTCCGGTCTCCC
DNA 2: TGGTGGCTACGACGGGATT
B19: CUCGCAA (DNA:RNA)
RNA: B3 RNA with A25C, A27C, U28G, U29C
DNA 1: CAATCTGAATTCCGGTCTCCC
DNA 2: TGGTGGCTACGACGGGATT
B20: ACUCUCA (DNA:RNA)
RNA: B3 RNA with U26C, A27U, U28C, A30C
DNA 1: CAATCTGAATTCCGGTCTCCC
DNA 2: TGGTGGCTACGACGGGATT

In this experiment the target is T1, RBFOX1 RRM RbFoxmut (Fox-RRM*) (Homo sapiens, UniProt Q9NWB1 109-208, R118D;E147R;N151S;E152T).
T1 sequence: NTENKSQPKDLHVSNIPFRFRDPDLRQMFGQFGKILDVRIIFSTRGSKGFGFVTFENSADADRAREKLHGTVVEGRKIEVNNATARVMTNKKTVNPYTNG
In words: EMSA; HiTS-Eq, 1 nM pool, 10 min; buffer printed only for the single-RNA assays: 10 mM Tris pH 7.5, 150 mM NaCl, 3.4 mM EDTA, 0.001% NP-40, 30 C. The settings on record: tags: His6 N-terminal (pET28a); label: 5' 32P. The method in brief: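 Purified wild-type or mutant RbFox RRM at increasing concentrations was equilibrated with 1 nM of 5′-radiolabelled RNA carrying 7 randomized nucleotides for 10 min in 50 µL. Unbound RNA was separated by 8% native PAGE and sequenced. Relative association constants came from read-count changes of each RNA species compared with the control reaction, normalised to the cognate motif.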
A general note: In EMSA bound probe runs differently from free probe, usually more slowly.
Consider B1, for which the binding signal is 0.0902 KA relative to UGCAUGU. For B2 the value was 0.103 KA relative to UGCAUGU. Consider B3, for which the binding signal was 0.145 KA relative to UGCAUGU. Under B4 stands 0.0905 KA relative to UGCAUGU; under B5, 0.0588 KA relative to UGCAUGU; under B6, 0.095 KA relative to UGCAUGU. Under B7 stands 0.0738 KA relative to UGCAUGU. Take B8: the binding signal is 0.0981 KA relative to UGCAUGU.

B9: the binding signal was 0.0761 KA relative to UGCAUGU. For B10 the value was 0.357 KA relative to UGCAUGU. For B11 the value was 0.0834 KA relative to UGCAUGU. Take B12: the binding signal is 0.0871 KA relative to UGCAUGU.

With B13, the binding signal is 0.0834 KA relative to UGCAUGU. For B14, the binding signal was 0.11 KA relative to UGCAUGU. In the case of B15, the binding signal is 0.129 KA relative to UGCAUGU. Regarding B16, the binding signal was 0.141 KA relative to UGCAUGU. For the molecule B17, the binding signal was 0.163 KA relative to UGCAUGU. For B18 the value was 0.091 KA relative to UGCAUGU; for B19, 0.0789 KA relative to UGCAUGU. Take B20: the binding signal was 0.118 KA relative to UGCAUGU.
